{"source": "patent US20150374718A1", "about": "“Zhankuic Acid A and Analogs thereof and Their Use as an Anti-Inflammatory Agent” (National Cheng Kung University, priority 2014, published 2015)", "system": "pCMV-Luc-transformed S. choleraesuis", "settings": "C57BL/6 mice; oral ZAA 2 mg/kg; 2×10^8 CFU/mouse; 48 h; vs vehicle"}
{"smiles": "C=C(CC[C@@H](C)[C@H]1CC[C@H]2C3=C(C(=O)C[C@]12C)[C@@]1(C)CCC(=O)[C@@H](C)[C@@H]1CC3=O)C(C)C(=O)O", "note": "(stereo partly shown) [No. 1, Zhankuic acid A]", "values": [{"measurement": "bioluminescence of infected mice", "result": "much weaker bioluminescence"}]}
